In all, about 150,000 compounds went through this assay and about 540 (0.36%) showed an effect of 50% or more. Some of the results follow.
system: Plasmodium falciparum; assay: Primary screen in NF54 nanoGlo assay, in single point, at 2uM, 72h; a lower Z score goes with more inhibition; assay type: functional, Erythrocyte; settings: timepoint 72 hour

Row | Structure (SMILES) | % Inhibition [%] | Z score
1 | COCc1nc(C)cc(NC[C@H]2CCc3cccnc32)n1 | -11 | 1.47
2 | O=C(Nc1ccc2ccc(Cl)cc2n1)C1(N2CCOCC2)CCC1 | 3 | -0.33
3 | O=C(NC[C@@H]1COc2ccccc2C1)c1cccc(-n2cnnc2)n1 | -2 | 0.27
4 | Cc1noc(C)c1CN1CC[C@H](Nc2nc3ccccc3s2)[C@@H](O)C1 | 7 | -1.21
5 | CC(=O)c1ccc(-c2nc(CC(=O)NC3CCCCC3)no2)cc1 | -1 | 0.08
6 | Cn1cc(-c2nc(-c3cnn(CCF)c3)no2)c(C2CC2)n1 | -4 | 0.41
7 | O[C@@H]1CO[C@H]2[C@@H]1OC[C@@H]2n1nnnc1-c1ccc(-c2ccccc2)cc1 | -6 | 0.75
8 | C[C@@H]1CN(c2noc(C3CC3)n2)CC[C@@]1(O)C1CCOCC1 | -14 | 2.45
9 | CCN1C[C@H](CN(C)C(=O)c2cc3ccccc3[nH]2)Oc2ccccc21 | 3 | -0.43
10 | CCc1cc(C(=O)N2C[C@H]3CC[C@@H](C2)N(Cc2c(C)noc2C)C3=O)on1 | 4 | -0.51
11 | CN(CCCNS(=O)(=O)c1ccc(C(=O)O)cc1)c1ccccn1 | -5 | 0.88
12 | Cc1ncccc1C(=O)NC[C@@]12CCCC=C1N(CC1CC1)C(=O)CC2 | -6 | 1.16
13 | Cn1cc(S(=O)(=O)NCc2ccc(-c3ccoc3)o2)cn1 | -8 | 1.16
14 | Cc1nn(C)c(C(=O)NCc2csc3c2CCCC3)c1Cl | -5 | 0.62
15 | CCC1(CC)C(NC2CCN(c3ncccn3)CC2)CC1OC (configuration not stated) | 13 | -1.17
16 | CCNCc1ccccc1OCCOC | -21 | 2.25
17 | Cc1nnc(CCC(=O)N2CCC(C)CC2)o1 | -10 | 1.34
18 | CCCNc1ccc(C#N)cc1NS(=O)(=O)N(C)C | -5 | 0.78
19 | O=C(Cc1cc2ccccc2s1)N1CCC[C@@](O)(CO)C1 | -5 | 0.94
20 | Nc1nc(-c2cccc(Oc3ccccc3)c2)ns1 | -3 | 0.55
21 | O=C1N(C2CCCC2)C(O)=NC12CCCCC2 | 9 | -1.38
22 | Cc1cc(S(=O)(=O)N2CCC3(CC2)C[C@@H]3NC(=O)c2ccncc2)ccc1F | 0 | 0.05

Row | Structure (SMILES) | % Inhibition [%] | Z score
23 | CC(=O)c1cccc(NC(=O)Cn2c(=O)n(Cc3ccccc3)c(=O)c3nscc32)c1 | -9 | 1.13
24 | CC(=O)NC1CCN(C[C@H]2CCc3ccccc3C2)CC1 | 15 | -1.76
25 | CC(C)c1nc([C@H]2CCCN(c3nccn4cncc34)C2)no1 | 4 | -0.45
26 | CN(C(=O)C1CC(F)(F)C1)c1ccccc1 | -7 | 1.29
27 | CC1(C)CC(=O)c2cn(-c3ccccc3)c(=O)c(C(=O)NC3CCCCC3)c2C1 | 2 | -0.21
28 | Cc1cc(-c2noc(C3C[C@H]4C[C@@H](N)[C@H]4C3)n2)nc2ccccc12 (some centres not stated) | -8 | 1.67
29 | CC1CCN(C[C@H]2CCCN(C(=O)COc3ccc(F)cc3)CC2)CC1 | 2 | -0.25
30 | O=C(Nc1ccnc(OCC(F)(F)F)n1)N1CCn2cccc2C1 | -6 | 0.78
31 | Cc1c(C(=O)O)nn(-c2cccc(F)c2)c1Oc1ccc(NC(=O)CC(C)C)cc1S(=O)(=O)NC(C)(C)C | 7 | -1.11
32 | CCCC[C@H](C)c1nc(-c2ncccn2)no1 | -9 | 1.21
33 | COc1ccc(-c2n[nH]cc2CNCCCOc2cccnc2)cc1F | 4 | -0.43
34 | COc1ccc(-c2noc(Cn3cnc4ccc(Cl)cc4c3=O)n2)cc1OC | -12 | 1.34
35 | FC(F)(F)c1cnc(N2CCC(c3nnc4n3CCC4)CC2)s1 | -5 | 0.77
36 | c1ccc(CNc2ncc(CN3CCCC[C@@H]3CN3CCCC3)cn2)cc1 | -1 | 0.14
37 | CN(C)c1ccccc1C(=O)N1CCC(C(=O)N2CCCC2)CC1 | 2 | -0.3
38 | CC(CS(C)(=O)=O)C(=O)N1C2C=C(c3ccccc3)CC1CC2 (configuration not stated) | -3 | 0.43
39 | Cc1ccc(C)c(CN(C)CC(=O)N(C)C)c1 | -10 | 0.93
40 | C[C@@H](c1ccccc1)c1ncccc1C#N | -3 | 0.34
41 | CN(C)C[C@H](O)Cn1cc(NC(=O)C(c2ccccc2)c2ccccc2)cn1 | -5 | 0.7
42 | O=C(NC[C@H]1CCCO1)Nc1cccc2c1CCCC2 | 3 | -0.55
43 | COC(=O)C1CC(OC)CN1C(=O)Cc1cccc(C)c1 (configuration not stated) | -15 | 2.91
44 | Cc1nc2ccc(-n3ncnc3CCO)cc2s1 | -5 | 0.96

Row | Structure (SMILES) | % Inhibition [%] | Z score
45 | O=C(NC1CCCC1CCO)c1ccncc1F (configuration not stated) | -8 | 1.08
46 | CC1CCC(Oc2cc(CNc3nccnc3C#N)ccn2)CC1 (configuration not stated) | -10 | 1.58
47 | Cc1cc(CN2CCC(CCC(=O)NC3CC3)CC2)[nH]n1 | 2 | -0.31
48 | CC(=O)N[C@@H](CC(=O)N1CCc2nnc(N)cc2C1)c1ccccc1 | -10 | 1.54
49 | Cc1cc(C)n(CCC(=O)NCc2nc3c(s2)CCCC3)c(=O)n1 | 8 | -1.38
50 | COc1cc(NC(=O)N2CC(O)(C(F)(F)F)C2)ccn1 | 3 | -0.45
51 | CC[C@H]1CCCCN1Cc1nc(C)cc(O)n1 | -10 | 1.91
52 | Cc1ccc(F)c(NS(=O)(=O)c2c(C)[nH]c(C)c2-c2nnc(C3CCC3)o2)c1 | -3 | 0.65
53 | Cc1ccc(Cl)cc1N1CC[C@@H](C(=O)Nc2ccc(C(F)(F)F)cc2)C1=O | -13 | 1.99
54 | CC(C)OCCCNC(=O)c1ccc2c(c1)nc1n2CC[C@H](C)C1 | -4 | 0.63
55 | CCOc1c(CN2CCC3(C2)OCCO3)c(C)nn1CC(C)C | -1 | 0.08
56 | CCC=C(CCC)C(=O)N(C)CCCn1ccnc1 | -11 | 1.09
57 | O=C(CCC(=O)NCCc1ccccc1)NCCc1ccccc1 | -6 | 0.81
58 | CN(C)c1ccc(CNC(=O)C2CCN(c3nc4ccc(Cl)cc4[nH]3)CC2)cc1 | 0 | 0.05
59 | O=C(c1ccccc1Nc1ccc(F)cc1)N1CCN(S(=O)(=O)c2ccc(F)c(F)c2)CC1 | -10 | 1.52
60 | COc1cccn(CC(=O)N(C)C[C@]2(c3ccccc3)CC2(C)C)c1=O | 7 | -1
61 | O=C(NC1CCCCC1)NC1(CO)CCCC1 | 3 | -0.37
62 | CCCN1CCCN(Cc2nc(N)nc(N(C)C)n2)CC1 | 0 | -0.01
63 | CC(=O)N1C[C@@H]2CCN(S(=O)(=O)c3cccc(F)c3)C[C@]2(CO)C1 | -12 | 1.96
64 | COCC1(S(=O)(=O)Nc2cccc([C@@H](O)C(F)(F)F)c2)CC1 | 2 | -0.34
65 | Cc1ccc(-c2nonc2NC(=O)Cc2cccc3ccccc23)cc1C | -8 | 1.1
66 | CC(C)n1nccc1C(=O)NCc1nnc2ccc(Cl)cn12 | -7 | 1.08

Row | Structure (SMILES) | % Inhibition [%] | Z score
67 | O=C(CNC(=O)OCc1ccccc1)NCc1ccnc(N2CCCC2=O)c1 | -7 | 1.25
68 | COC(=O)c1cc(NC(=O)[C@H]2CCOC2)c2oc(Cc3ccccc3)nc2c1 | 2 | -0.3
69 | COc1ccc2c(c1)C[C@H](NC(=O)Nc1cc(Cl)ccc1C)CO2 | -2 | 0.3
70 | COCC(C)(C)NC(=O)[C@@H]1CCC(=O)N1C | 7 | -1.02
71 | Cc1nc(N(C)Cc2n[nH]c3c2CCCCC3)cc([C@H]2C[C@@H](O)C2)n1 | -3 | 0.55
72 | CN(C)C(=O)c1ccc(CNC(=O)c2ncc(F)cc2F)o1 | -8 | 1.01
73 | CCN(CCC(=O)NCCC(C)C)C(=O)c1cnc(C)cn1 | -4 | 0.56
74 | C[C@@H](C(=O)N1CCC(c2nc3c(s2)CCC3)CC1)c1cnn(C)c1 | -22 | 2.79
75 | COc1ccc(CNC(=O)[C@H]2CCc3sc(C(=O)N(C)C)cc3C2)cc1 | 33 | -3.79
76 | Cc1cc(NC(=O)c2ccc(Cl)c(Cl)c2)nn1-c1ccc(C#N)cc1 | 3 | -0.44
77 | CCn1c(COc2ccc3c(c2)CCNC3=O)nc2c(F)cccc21 | 5 | -0.7
78 | CC(C)CS(=O)(=O)CCNC(=O)[C@@H]1Cc2ccccc2CN1C | 4 | -0.69
79 | C#CCNC(=O)NCc1cc(CC)n[nH]1 | 3 | -0.45
80 | CCOc1ccc(CN2C[C@H]3CN(C4CCCC4)C[C@@]3(C(=O)O)C2)cn1 | -7 | 1.29
81 | CN1C[C@@H]2CC[C@H](CC1=O)N2Cc1cc2cc3c(cc2[nH]c1=O)CCC3 | -15 | 2.77
82 | CCO[C@H]1COCC[C@@H]1NS(=O)(=O)CCc1cccc2ccccc12 | 15 | -1.94
83 | Cc1ccc(S(=O)(=O)NCc2cncc(-c3ccco3)c2)cc1C | 8 | -1.09
84 | Cc1cc([C@H](C)NC(=O)NC2CCOCC2)c(C)s1 | -5 | 0.83
85 | Cc1nccc(C(=O)N2CC[C@]34C(=O)N(Cc5cn(nn5)CCCOc5cccc(c5)[C@H]23)c2ccccc24)n1 | 6 | -0.76
86 | CC(C)(C)C(=O)Nc1cccc(NC(=O)C(C)(C)C)n1 | -18 | 2.48

Reference: ChEMBL document CHEMBL4888484, “Replenishing the malaria drug discovery pipeline: Screening and hit evaluation of the MMV Hit Generation Library 1 (HGL1) against asexual blood stage Plasmodium falciparum ,using a nano luciferase reporter read-out” (2022)
